Experimental data reported in a collection of fitness landscapes (doi:10.1126/science.1257360).
This is one part of the list.

B1: PhoQ; a variant is named by its letters at X, in order, P23837 (parent)
chain: MKKLLRLFFPLSLRVRFLLATAAVVLVLSLAYGMVALIGYSVSFDKTTFRLLRGESNLFYTLAKWENNKLHVELPENIDKQSPTMTLIYDENGQLLWAQRDVPWLMKMIQPDWLKSNGFHEIEADVNDTSLLLSGDHSIQQQLQEVREDDDDAEMTHSVAVNVYPATSRMPKLTIVVVDTIPVELKSSYMVWSWFIYVLSANLLLVIPLLWVAAWWSLRPIEALAKEVRELEEHNRELLNPATTRELTSLVRNLNRLLKSERERYDKYRTTLTDLTHSLKTPLXXLQXXLRSLRSEKMSVSDAEPVMLEQISRISQQIGYYLHRASMRGGTLLSRELHPVAPLLDNLTSALNKVYQRKGVNISLDISPEISFVGEQNDFVEVMGNVLDNACKYCLEFVEISARQTDEHLYIVVEDDGPGIPLSKREVIFDRGQRVDTLRPGQGVGLAVAREITEQYEGKIVAGESMLGGARMEVIFGRQHSAPKDE

Variants of: B1
Experiment: enrichment ratio after two sorts for PhoP signalling (ratio (wild type AVST 3.29)); higher = more functional
Conditions: with PhoP (E. coli)

Variant | enrichment ratio
RKPG | ≤ 0.25
KRRM | ≤ 0.25
CSCV | 0.507
DLWH | ≤ 0.25
NCCS | ≤ 0.25
FHHY | ≤ 0.25
KVIS | ≤ 0.25
DIPS | ≤ 0.25
DDGP | ≤ 0.25
TCNF | 3.86
HFQH | ≤ 0.25
SEGT | 1.26
DWIF | ≤ 0.25
FLKV | ≤ 0.25
FSTG | ≤ 0.25
LKSG | ≤ 0.25
YPDI | ≤ 0.25
WMIK | ≤ 0.25
SQAA | 5.77
SAEK | ≤ 0.25
VKAA | ≤ 0.25
LTRD | ≤ 0.25
MEFV | 9.93
HMHI | ≤ 0.25
PHFE | ≤ 0.25

Variant | enrichment ratio
TLDA | ≤ 0.25
VWIN | ≤ 0.25
ADLL | 9.99
DTWW | ≤ 0.25
QKRS | ≤ 0.25
DAKN | ≤ 0.25
SELW | 0.709
VDCE | ≤ 0.25
LTQQ | ≤ 0.25
AWHI | ≤ 0.25
YIGY | 0.435
LPKW | ≤ 0.25
IMHF | ≤ 0.25
IVFF | ≤ 0.25
RECW | ≤ 0.25
SDFI | ≤ 0.25
IWAY | ≤ 0.25
HNDT | ≤ 0.25
WVIL | ≤ 0.25
SMQL | 12.1
GCPN | ≤ 0.25
KYLG | ≤ 0.25
SFQM | ≤ 0.25
MDTR | ≤ 0.25
DYTD | ≤ 0.25

Variant | enrichment ratio
QQTE | ≤ 0.25
LQFK | ≤ 0.25
KEIT | ≤ 0.25
SVAH | 12.7
AWLL | 0.288
TCLC | 23.4
QVKG | ≤ 0.25
IFHW | ≤ 0.25
TNRM | ≤ 0.25
YHMS | ≤ 0.25
PCES | ≤ 0.25
TQRC | ≤ 0.25
SWPS | ≤ 0.25
RPWF | ≤ 0.25
RRNQ | ≤ 0.25
WQVD | ≤ 0.25
GDEC | ≤ 0.25
KMNM | ≤ 0.25
FKIV | ≤ 0.25
PLCA | ≤ 0.25
KKML | ≤ 0.25
ENNM | ≤ 0.25
WPKV | ≤ 0.25
SKLR | ≤ 0.25
QIMN | ≤ 0.25

Variant | enrichment ratio
KLDM | ≤ 0.25
RWRD | ≤ 0.25
KPAW | ≤ 0.25
HLYD | ≤ 0.25
NSDH | ≤ 0.25
MPEK | ≤ 0.25
LDHW | ≤ 0.25
CAPL | ≤ 0.25
DYRL | ≤ 0.25
RPRP | ≤ 0.25
YIWY | ≤ 0.25
WPES | ≤ 0.25
HLQR | ≤ 0.25
NGMC | ≤ 0.25
PPLF | ≤ 0.25
GYSR | ≤ 0.25
DLAG | ≤ 0.25
DLYR | ≤ 0.25
MHMA | ≤ 0.25
RWTF | ≤ 0.25
KTYM | ≤ 0.25
HYLN | ≤ 0.25
VIIG | ≤ 0.25
QEFA | 0.476
AGNG | ≤ 0.25

Variant | enrichment ratio
SKMT | 10.8
ETCS | ≤ 0.25
MTAN | 6.61
WDGI | ≤ 0.25
ILYG | ≤ 0.25
KGSG | ≤ 0.25
KYGP | ≤ 0.25
IYRM | ≤ 0.25
WFIL | ≤ 0.25
KDPY | ≤ 0.25
VHHN | ≤ 0.25
RNFA | ≤ 0.25
LFCK | ≤ 0.25
HWWY | ≤ 0.25
GKND | ≤ 0.25
EVPA | ≤ 0.25
HMMC | ≤ 0.25
DEKP | ≤ 0.25
TQIH | 2.12
LEND | ≤ 0.25
TASE | 11.3
YKWV | ≤ 0.25
HALK | ≤ 0.25
QYGQ | ≤ 0.25
MINH | ≤ 0.25

Variant | enrichment ratio
RTLK | ≤ 0.25
LRTE | ≤ 0.25
MTYD | ≤ 0.25
ADFF | ≤ 0.25
RHIF | ≤ 0.25
YIPH | ≤ 0.25
SQSQ | 8.8
DRNP | ≤ 0.25
KQNR | ≤ 0.25
SSDH | ≤ 0.25
NNST | ≤ 0.25
PVEP | ≤ 0.25
PLAI | ≤ 0.25
GGHN | ≤ 0.25
PNKS | ≤ 0.25
KPRM | ≤ 0.25
NLCQ | ≤ 0.25
VTIL | ≤ 0.25
FKVN | ≤ 0.25
RYNE | ≤ 0.25
HEHF | ≤ 0.25
GFGN | ≤ 0.25
DADK | ≤ 0.25
NKYH | ≤ 0.25
GLDQ | ≤ 0.25

Variant | enrichment ratio
DSVD | ≤ 0.25
MYGK | ≤ 0.25
RGPT | ≤ 0.25
IVAP | ≤ 0.25
LRKS | ≤ 0.25
FCDP | ≤ 0.25
SKGD | ≤ 0.25
VLLD | ≤ 0.25
MILS | 7.3
NNSI | ≤ 0.25
DVHP | ≤ 0.25
SQYP | ≤ 0.25
PRGP | ≤ 0.25
NICC | ≤ 0.25
EIML | ≤ 0.25
TRPL | ≤ 0.25
TGII | ≤ 0.25
FHTF | ≤ 0.25
NFLQ | ≤ 0.25
WGVY | ≤ 0.25
RASE | ≤ 0.25
GGWG | ≤ 0.25
QCNM | ≤ 0.25
TVQS | 7.79
WNDP | ≤ 0.25

Variant | enrichment ratio
IENN | ≤ 0.25
YICP | ≤ 0.25
AFRT | ≤ 0.25
VTKY | ≤ 0.25
ECMF | ≤ 0.25
FSGR | ≤ 0.25
WINP | ≤ 0.25
KYKH | ≤ 0.25
YVVN | ≤ 0.25
VADM | ≤ 0.25
PLQW | ≤ 0.25
NFWQ | ≤ 0.25
MEQK | ≤ 0.25
ADKL | ≤ 0.25
YQVS | ≤ 0.25
KDNG | ≤ 0.25
DKGM | ≤ 0.25
EYMR | ≤ 0.25
EIVW | ≤ 0.25
HGTY | ≤ 0.25
